{"source": "patent EP0562731A1", "about": "“Substituted pyridinesulfonamide compounds or their salts, process for preparing the same, and herbicides containing the same” (ISHIHARA SANGYO KAISHA, Ltd., priority 1992, dated 1993)", "experiment_in_all_cases": "Test Example 1: foliar application pot test, visual growth control rating", "format_in_all_cases": "in vivo", "conditions_in_all_cases": "wettable powder, observed 20 to 31 days after application", "key": {"[1]": {"tested_on": "barnyard grass (Echinochloa crus-galli)", "set-up": "key: 1: the same as in an untreated plot; 10: perfect growth control", "text": "(§1) 1/1,500 are [are (a) = 100 m²] pots were filled with upland farming soil, which in the pots was then sown with a variety of plants. The plants grown will be enumerated below.\n(§2) When each plant reached a given growth stage (a 1.2- to 3.0-leaf stage for rice, primary leaf to a 0.7-leaf stage for soybean, 2.1- to 3.6-leaf stage for corn, cotyledon to 0.7-leaf stage for cotton, 2.0- to 3.0-leaf stage for wheat, 0.3- to 3.4-leaf stage for cocklebur, 0.3- to 1.6-leaf stage for morning glory, 0.1- to 1.3-leaf stage for prickly sida, 0.1- to 1.3-leaf stage for slender amaranth, 1.5- to 3.2-leaf stage for barnyard glass, and 1.2- to 3.0-leaf stage for large crabgrass), a predetermined amount of the herbicide of the present invention in the form of a wettable powder, weighed out, diluted with 5 ℓ/a of water and admixed with 0.2 or 0.1 vol%, based on the resulting composition, of an agricultural spreader, was foliarly applied to the plant with a small spray gun. The progress of growth of the plant was visually observed 20 to 31 days after the foliar application to evaluate the degree of growth control according to 10 ratings (1: the same as in an untreated plot - 10: perfect growth control)."}, "[2]": {"tested_on": "corn (Zea mays)", "set-up": "key: 1: the same as in an untreated plot; 10: perfect growth control", "text": "as §1, §2"}, "[3]": {"tested_on": "rice (Oryza sativa)", "set-up": "key: 1: the same as in an untreated plot; 10: perfect growth control", "text": "as §1, §2"}, "[4]": {"tested_on": "morning glory (Ipomoea purpurea)", "set-up": "key: 1: the same as in an untreated plot; 10: perfect growth control", "text": "as §1, §2"}, "[5]": {"tested_on": "slender amaranth (Amaranthus viridis)", "set-up": "key: 1: the same as in an untreated plot; 10: perfect growth control", "text": "as §1, §2"}, "[6]": {"tested_on": "cocklebur (Xanthium strumarium)", "set-up": "key: 1: the same as in an untreated plot; 10: perfect growth control", "text": "as §1, §2"}, "[7]": {"tested_on": "prickly sida (Sida spinosa)", "text": "as §1, §2"}, "[8]": {"tested_on": "soybean (Glycine max)", "set-up": "key: 1: the same as in an untreated plot; 10: perfect growth control", "text": "as §1, §2"}, "[9]": {"tested_on": "wheat (Triticum)", "set-up": "key: 1: the same as in an untreated plot; 10: perfect growth control", "text": "as §1, §2"}, "[10]": {"tested_on": "large crabgrass (Digitaria adscendens)", "text": "as §1, §2"}, "[11]": {"tested_on": "cotton (Gossypium)", "set-up": "key: 1: the same as in an untreated plot; 10: perfect growth control", "text": "as §1, §2"}}, "note": "The name of at least one read-out is uncertain.", "data": [{"compound": "CCN(c1cccc(S(=O)(=O)NC(=O)Nc2nc(C)nc(OC)n2)n1)S(=O)(=O)C(C)F", "note": "(racemic) [compound 58]", "values": [{"measurement": "degree of growth control, EC", "setting": "[1]; 0.31 g/a active ingredient", "value": 5}, {"measurement": "degree of growth control, EC", "setting": "[1]; 1.25 g/a active ingredient", "value": 6}, {"measurement": "degree of growth control, ZE", "setting": "[2]; 0.31 g/a active ingredient", "value": 3}, {"measurement": "degree of growth control, ZE", "setting": "[2]; 1.25 g/a active ingredient", "value": 4}, {"measurement": "degree of growth control, OR", "setting": "[3]; 0.31 g/a active ingredient", "value": 4}, {"measurement": "degree of growth control, OR", "setting": "[3]; 1.25 g/a active ingredient", "value": 5}, {"measurement": "degree of growth control, IP", "setting": "[4]; 0.31 g/a active ingredient", "value": 5}, {"measurement": "degree of growth control, IP", "setting": "[4]; 1.25 g/a active ingredient", "value": 6}, {"measurement": "degree of growth control, AM", "setting": "[5]; 0.31 g/a active ingredient", "value": 7}, {"measurement": "degree of growth control, AM", "setting": "[5]; 1.25 g/a active ingredient", "value": 8}, {"measurement": "degree of growth control, XA", "setting": "[6]; 0.31 g/a active ingredient", "value": 7}, {"measurement": "degree of growth control, XA", "setting": "[6]; 1.25 g/a active ingredient", "value": 8}, {"measurement": "degree of growth control, SI", "setting": "[7]; 0.31 g/a active ingredient", "value": 6}, {"measurement": "degree of growth control, SI", "setting": "[7]; 1.25 g/a active ingredient", "value": 7}]}, {"compound": "CCN(c1cccc(S(=O)(=O)NC(=O)Nc2nc(C)nc(OC)n2)n1)S(=O)(=O)C(C)C", "note": "[Compound No. 1, 6-[(N-ethyl-N-isopropylsulfonyl)amino]-N-[[(4-methoxy-6-methyltriazin-2-yl)amino]carbonyl]-2-pyridinesulfonamide]", "values": [{"measurement": "degree of growth control, EC", "setting": "[1]; 0.31 g/a active ingredient", "value": 9}, {"measurement": "degree of growth control, EC", "setting": "[1]; 1.25 g/a active ingredient", "value": 10}, {"measurement": "degree of growth control, ZE", "setting": "[2]; 0.31 g/a active ingredient", "value": 9}, {"measurement": "degree of growth control, ZE", "setting": "[2]; 1.25 g/a active ingredient", "value": 10}, {"measurement": "degree of growth control, OR", "setting": "[3]; 0.31 g/a active ingredient", "value": 9}, {"measurement": "degree of growth control, OR", "setting": "[3]; 1.25 g/a active ingredient", "value": 10}, {"measurement": "degree of growth control, IP", "setting": "[4]; 0.31 g/a active ingredient", "value": 8}, {"measurement": "degree of growth control, IP", "setting": "[4]; 1.25 g/a active ingredient", "value": 9}, {"measurement": "degree of growth control, GL", "setting": "[8]; 0.31 g/a active ingredient", "value": 3}, {"measurement": "degree of growth control, GL", "setting": "[8]; 1.25 g/a active ingredient", "value": 4}, {"measurement": "degree of growth control, XA", "setting": "[6]; 0.31 g/a active ingredient", "value": 9}, {"measurement": "degree of growth control, XA", "setting": "[6]; 1.25 g/a active ingredient", "value": 10}, {"measurement": "degree of growth control, SI", "setting": "[7]; 0.31 g/a active ingredient", "value": 8}, {"measurement": "degree of growth control, SI", "setting": "[7]; 1.25 g/a active ingredient", "value": 9}]}, {"compound": "CCCN(c1cccc(S(=O)(=O)NC(=O)Nc2nc(OC)nc(OC)n2)n1)S(=O)(=O)C(C)C", "note": "[Compound No. 5]", "values": [{"measurement": "degree of growth control, ZE", "setting": "[2]; 0.31 g/a active ingredient", "value": 7}, {"measurement": "degree of growth control, ZE", "setting": "[2]; 1.25 g/a active ingredient", "value": 10}, {"measurement": "degree of growth control, OR", "setting": "[3]; 0.31 g/a active ingredient", "value": 9}, {"measurement": "degree of growth control, OR", "setting": "[3]; 1.25 g/a active ingredient", "value": 10}, {"measurement": "degree of growth control, IP", "setting": "[4]; 0.31 g/a active ingredient", "value": 8}, {"measurement": "degree of growth control, IP", "setting": "[4]; 1.25 g/a active ingredient", "value": 9}, {"measurement": "degree of growth control, GL", "setting": "[8]; 0.31 g/a active ingredient", "value": 3}, {"measurement": "degree of growth control, GL", "setting": "[8]; 1.25 g/a active ingredient", "value": 4}, {"measurement": "degree of growth control, TR", "setting": "[9]; 0.31 g/a active ingredient", "value": 9}, {"measurement": "degree of growth control, TR", "setting": "[9]; 1.25 g/a active ingredient", "value": 10}, {"measurement": "degree of growth control, AM", "setting": "[5]; 0.31 g/a active ingredient", "value": 9}, {"measurement": "degree of growth control, AM", "setting": "[5]; 1.25 g/a active ingredient", "value": 10}, {"measurement": "degree of growth control, DI", "setting": "[10]; 0.31 g/a active ingredient", "value": 5}, {"measurement": "degree of growth control, DI", "setting": "[10]; 1.25 g/a active ingredient", "value": 6}, {"measurement": "degree of growth control, SI", "setting": "[7]; 0.31 g/a active ingredient", "value": 4}, {"measurement": "degree of growth control, SI", "setting": "[7]; 1.25 g/a active ingredient", "value": 5}]}, {"compound": "CCOCCS(=O)(=O)N(CC)c1cccc(S(=O)(=O)NC(=O)Nc2nc(C)nc(OC)n2)n1", "note": "[compound 94]", "values": [{"measurement": "degree of growth control, EC", "setting": "[1]; 0.31 g/a active ingredient", "value": 4}, {"measurement": "degree of growth control, EC", "setting": "[1]; 1.25 g/a active ingredient", "value": 9}, {"measurement": "degree of growth control, ZE", "setting": "[2]; 0.31 g/a active ingredient", "value": 4}, {"measurement": "degree of growth control, ZE", "setting": "[2]; 1.25 g/a active ingredient", "value": 7}, {"measurement": "degree of growth control, OR", "setting": "[3]; 0.31 g/a active ingredient", "value": 3}, {"measurement": "degree of growth control, OR", "setting": "[3]; 1.25 g/a active ingredient", "value": 4}, {"measurement": "degree of growth control, IP", "setting": "[4]; 0.31 g/a active ingredient", "value": 4}, {"measurement": "degree of growth control, IP", "setting": "[4]; 1.25 g/a active ingredient", "value": 7}, {"measurement": "degree of growth control, GL", "setting": "[8]; 0.31 g/a active ingredient", "value": 3}, {"measurement": "degree of growth control, GL", "setting": "[8]; 1.25 g/a active ingredient", "value": 6}, {"measurement": "degree of growth control, GO", "setting": "[11]; 0.31 g/a active ingredient", "value": 6}, {"measurement": "degree of growth control, GO", "setting": "[11]; 1.25 g/a active ingredient", "value": 7}, {"measurement": "degree of growth control, AM", "setting": "[5]; 0.31 g/a active ingredient", "value": 6}, {"measurement": "degree of growth control, AM", "setting": "[5]; 1.25 g/a active ingredient", "value": 9}, {"measurement": "degree of growth control, XA", "setting": "[6]; 0.31 g/a active ingredient", "value": 8}, {"measurement": "degree of growth control, XA", "setting": "[6]; 1.25 g/a active ingredient", "value": 9}, {"measurement": "degree of growth control, DI", "setting": "[10]; 0.31 g/a active ingredient", "value": 2}, {"measurement": "degree of growth control, DI", "setting": "[10]; 1.25 g/a active ingredient", "value": 3}, {"measurement": "degree of growth control, SI", "setting": "[7]; 0.31 g/a active ingredient", "value": 4}, {"measurement": "degree of growth control, SI", "setting": "[7]; 1.25 g/a active ingredient", "value": 6}]}, {"compound": "CCCN(c1cccc(S(=O)(=O)NC(=O)Nc2nc(C)nc(OC)n2)n1)S(=O)(=O)CC(F)(F)F", "note": "[compound 95]", "values": [{"measurement": "degree of growth control, EC", "setting": "[1]; 0.31 g/a active ingredient", "value": 3}, {"measurement": "degree of growth control, EC", "setting": "[1]; 1.25 g/a active ingredient", "value": 6}, {"measurement": "degree of growth control, ZE", "setting": "[2]; 0.31 g/a active ingredient", "value": 9}, {"measurement": "degree of growth control, ZE", "setting": "[2]; 1.25 g/a active ingredient", "value": 10}, {"measurement": "degree of growth control, OR", "setting": "[3]; 0.31 g/a active ingredient", "value": 5}, {"measurement": "degree of growth control, OR", "setting": "[3]; 1.25 g/a active ingredient", "value": 6}, {"measurement": "degree of growth control, IP", "setting": "[4]; 0.31 g/a active ingredient", "value": 8}, {"measurement": "degree of growth control, IP", "setting": "[4]; 1.25 g/a active ingredient", "value": 9}, {"measurement": "degree of growth control, GL", "setting": "[8]; 0.31 g/a active ingredient", "value": 9}, {"measurement": "degree of growth control, GL", "setting": "[8]; 1.25 g/a active ingredient", "value": 10}, {"measurement": "degree of growth control, GO", "setting": "[11]; 0.31 g/a active ingredient", "value": 8}, {"measurement": "degree of growth control, GO", "setting": "[11]; 1.25 g/a active ingredient", "value": 9}, {"measurement": "degree of growth control, AM", "setting": "[5]; 0.31 g/a active ingredient", "value": 5}, {"measurement": "degree of growth control, AM", "setting": "[5]; 1.25 g/a active ingredient", "value": 6}, {"measurement": "degree of growth control, XA", "setting": "[6]; 0.31 g/a active ingredient", "value": 9}, {"measurement": "degree of growth control, XA", "setting": "[6]; 1.25 g/a active ingredient", "value": 10}, {"measurement": "degree of growth control, DI", "setting": "[10]; 0.31 g/a active ingredient", "value": 4}, {"measurement": "degree of growth control, DI", "setting": "[10]; 1.25 g/a active ingredient", "value": 5}, {"measurement": "degree of growth control, SI", "setting": "[7]; 0.31 g/a active ingredient", "value": 5}, {"measurement": "degree of growth control, SI", "setting": "[7]; 1.25 g/a active ingredient", "value": 6}]}]}
